The whole screen tested about 71,000 compounds, of which about 1,800 (2.5%) were called active. The shares of active, inactive and inconclusive entries below differ from those in the screen. The call rests on the fitted dose curve; in most records, active means well fitted activation curve with a large enough effect in the signal ratio, with a control signal flat (not every such curve was filed as active); inconclusive means small, poorly fitted or top-dose-only effect, or effect the other way, or a change in a side signal; inactive means flat fitted curve, though single readings scatter; the % refers to the signal ratio. Potencies of inconclusive entries are doubtful fits and often do not repeat.
Experiment: Cell signaling CRE-BLA (Fsk stim); on activity change, negative = inhibition: % of control where 0% means no effect
Conditions: CHO CRE-bla reporter (cAMP response element driving beta-lactamase), forskolin EC10, beta-lactamase ratio; activity change, negative = inhibition: at 38.2 µM (top of the series) unless noted
Method in brief: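 Modulation of forskolin-driven signalling is measured in CHO cells carrying a CRE-controlled beta-lactamase reporter. Cells are stimulated with EC10 NKH 477 in the presence of titrated compound for 3 h at 37 °C, then loaded with CCF4 for 2 h at room temperature.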
Potency means the concentration at half of the fitted maximal effect; tags describe the fitted curve by direction and shape.

| Compound | activity change, negative = inhibition | Potency |
| --- | --- | --- |
| CCN(CC)CCCCn1c(-c2ccccc2)nc2c(NCc3ccccc3)nc(C)nc21 | inactive |  |
| O=C(OCCNC(=O)c1ccc2ccccc2n1)c1cccnc1 |  | inconclusive: 12.6 µM [rising, partial curve] |
| CCc1oc2ccccc2c1C(=O)c1cc(Br)c(O)c(Br)c1 | inactive: 22.8% [at 7.6 µM] | inconclusive: 5.01 µM [rising, single point] |
| COc1nc(-c2ccccc2)ccc1-c1noc(-c2ccccc2)n1 |  | inconclusive: 2.51 µM [rising, full curve, poor fit] |
| COCCn1cc(C(=O)NCCCN2CCC(C)CC2)c2c3ccccc3n(C)c2c1=O | inactive |  |
| Cc1cccc(C)c1OCc1nnc2c3cnn(C)c3ncn12 | inconclusive: -1.32% |  |
| O=C(NCC1CCCO1)C1CCC(N2C(=O)c3ccccc3C2=O)CC1 (stereo not drawn) | inconclusive: 6.38% [at 7.6 µM] |  |
| CC(C)(C)c1ccc(OCC(=O)NCc2ccco2)c(Br)c1 | inconclusive: -10.3% |  |
| COc1ccc(Cl)cc1NC(=O)CSc1nncn1-c1cccnc1 |  | inconclusive: 12.6 µM [rising, partial curve] |
| C=C(C)COc1ccc(-c2n[nH]c(C)c2Oc2ccccc2OC)c(O)c1 | inconclusive: 1.77% |  |
| CCOC(=O)c1sc(C)c(C(N)=O)c1NC1=NCCCCC1 |  | inconclusive: 25.1 µM [rising, single point] |
| Cc1ccc(C)c(N2CCN(C(=O)c3ccc(CS(=O)(=O)c4ccccc4C)o3)CC2)c1 | inconclusive: -6.66% |  |
| O=C(c1cnccn1)N1CCC2(CCCN(c3ccc(-c4ccccc4)cc3)C2)CC1 | inactive |  |
| Cc1csc2nc(CSc3nc4ccccc4o3)c(Br)n12 |  | active: 2.51 µM |
| Cc1cc(Nc2ccccc2)n(-c2nc3ccccc3[nH]2)n1 | inactive |  |
| CCS(=O)(=O)N1CCC(C(=O)NCc2ccccc2OC)CC1 | inconclusive: -3.16% |  |
| CCn1c(-c2cc(OC)c(OC)c(OC)c2)n[nH]c1=S |  | inconclusive: 12.6 µM [rising, single point] |
| O=C(N/C(=N\O)c1ccccc1)Nc1ccc(Cl)cc1 | inactive |  |
| CCCc1nc(SCC(=O)N2CCN(c3ccccc3)CC2)c2c(=O)n(C)c(=O)n(C)c2n1 | inactive |  |
| CC(C)COc1ccc(C(=O)OCCN2CCOCC2)cc1 | inconclusive: 9.15% |  |
| Cc1[nH]c2ccc(C(=O)OCCN(C)C)cc2c1C | inactive |  |

| Compound | activity change, negative = inhibition | Potency |
| --- | --- | --- |
| Cc1cc(N2CCCCC2)nc(SCc2ccc(C#N)cc2)n1 | inconclusive: 23% |  |
| COC(=O)c1ccc(C(NC(=O)OCc2ccccc2)/C(C)=C/[C@@H](C)C(=O)NCc2cccnc2)cc1 (stereo partly drawn) | inactive |  |
| COC(=O)c1nnn(-c2nonc2N)c1CSc1ccccn1 |  | inconclusive: 10 µM [rising, partial curve] |
| COC(=O)c1c(N)c(C#N)c(C)n1-c1ccccc1 |  | inconclusive: 12.6 µM [rising, single point] |
| CC(C)OC(=O)CCC(=O)Nc1nc2ccccc2s1 | inconclusive: 27.6% [at 7.6 µM] |  |
| O=C(Nc1ccccc1-c1ccccc1)c1cnccn1 |  | inconclusive: 10 µM [rising, partial curve] |
| Cc1csc2ncc(C(=O)Nc3ccon3)c(=O)n12 | inactive |  |
| COc1cccc(CNC(=O)C2CCN(S(=O)(=O)c3ccccc3)CC2)c1 |  | inconclusive: 0.0631 µM [falling, partial curve] |
| COC(=O)c1sccc1NC(=O)c1ccncc1 |  | active: 10 µM |
| Nn1cnnc1SCC(=O)Nc1ccc(C2CCCCC2)cc1 |  | inconclusive: 25.1 µM [falling, single point] |
| c1ccncc1 | inactive |  |
| O=C(CCS(=O)(=O)c1cccc2nonc12)N1CCN(c2ccc(F)cc2)CC1 | inconclusive: -7.94% |  |
| Cc1cccn2c(=O)c3cc(C#N)c(=NC(=O)c4ccncc4)n(CCCOC(C)C)c3nc12 |  | active: 12.6 µM |
| CCCCCNC(=O)c1ccc2c(=O)[nH]c3c(C(=O)NCC4CCCO4)sc(=S)n3c2c1 (stereo not drawn) | inconclusive: -20.5% |  |
| C/C(Cl)=C/Cn1c(SC(C)C)nc2c1c(=O)[nH]c(=O)n2C |  | active: 7.94 µM |
| Oc1c(C(c2ccccc2)N2CCN(Cc3ccccc3)CC2)sc2ncnn12 (stereo not drawn) | inconclusive: -20.7% |  |
| O=C(CNC(=O)c1cccs1)NCCN1CCN(c2ccccc2F)CC1 | inactive |  |
| Cc1cccn2c(=O)c3cc(C(=O)N4c5ccccc5CC4C)n(C)c3nc12 (stereo not drawn) |  | inconclusive: 0.316 µM [rising, full curve, poor fit] |
| CC(C)COc1ccc(-c2nnc(-c3ccco3)o2)cc1 | inconclusive: 19.9% |  |
| O=C(Cn1cnc2c(nnn2Cc2ccc(F)cc2)c1=O)NCC1CCCO1 (stereo not drawn) | inconclusive: 2.62% |  |
| CC(C)(C)c1csc(NC(=O)c2ccc(Cl)s2)n1 | inconclusive: -15% |  |

| Compound | activity change, negative = inhibition | Potency |
| --- | --- | --- |
| CCCCn1c(=O)[nH]c(=O)c2c1nc(COC(=O)c1c(C)noc1C)n2CCC |  | inconclusive: 12.6 µM [rising, partial curve] |
| Cc1cc(C(=O)Nc2sc(C)c(-c3ccc(F)cc3)c2C(N)=O)no1 |  | inconclusive: 12.6 µM [rising, single point] |
| N#CC(C(=O)NCc1ccco1)c1nc2ccccc2nc1N1CCOCC1 (stereo not drawn) | inconclusive: -0.824% |  |
| COc1cc(C(=O)Nc2oc(-c3ccccc3)c(-c3ccccc3)c2C#N)cc(OC)c1OC |  | inconclusive: 1.58 µM [rising, full curve, poor fit] |
| CCc1cccc(C)c1NC(=O)CSc1nnc(-c2cc3cc(Br)ccc3o2)n1CC | inactive |  |
| C[C@@H](CCC(=O)O)C(=O)O | inactive: 0.47% [at 7.6 µM] |  |
| OCCN1CCN(c2nc(N3CCCCC3)nc(N3CCCCC3)n2)CC1 |  | inconclusive: 0.02 µM [rising, full curve] |
| O=C(CSc1nnnn1-c1ccc(Cl)cc1)NC(=O)Nc1ccc2c(c1)OCCO2 | inconclusive: 4.55% |  |
| CCC1CCCCN1S(=O)(=O)c1ccc2c(c1)CCN2C(=O)C1CCC1 (stereo not drawn) |  | inconclusive: 7.94 µM [rising, partial curve] |
| CC[N+](CC)(CC)CCOc1cccc(OCC[N+](CC)(CC)CC)c1OCC[N+](CC)(CC)CC | inactive |  |
| Nc1nonc1-c1nc2ccccc2[nH]1 | inconclusive: -10.5% |  |
| CCCCCOc1ccc(OC(=O)c2ccncc2)cc1 | inactive |  |
| O=C(Nc1nc(-c2ccccn2)cs1)c1ccc(S(=O)(=O)N2CCCCC2)cc1 | inactive |  |
| N#CC1=C(N)C(C#N)(C#N)C2(CCC3(CC2)OCCO3)C2CC3(CC=C12)OCCO3 (stereo not drawn) |  | inconclusive: 12.6 µM [rising, single point] |
| COC(=O)c1c(NC(=O)CC2NCCNC2=O)sc2c1CCCC2 (stereo not drawn) |  | inconclusive: 12.6 µM [rising, single point] |
| O=C(Nc1cccc(F)c1)c1ccc(S(=O)(=O)N2CCCC2)cc1 | inactive |  |
| COc1ccc(C2C(C(=O)OC3CCCCC3)=C(C)Nc3nnnn32)c(OC)c1OC (stereo not drawn) | inconclusive: -15.3% |  |
| CC1(C)Cc2cccc(OCC(=O)Nc3ccccc3N3CCOCC3)c2O1 |  | inconclusive: 5.01 µM [falling, single point] |
| CCOC(=O)C1CCCN(Cc2ccc(O)c(OC)c2)C1 (stereo not drawn) |  | inconclusive: 0.0251 µM [rising, single point] |
| COc1ccc(NC(=O)N2CCCC3(CCN(C(=O)c4cnccn4)CC3)C2)cc1 | inactive |  |
| COc1ccccc1NC(=O)CSc1nnc(Cc2cc(=O)[nH]c(=O)[nH]2)n1-c1ccccc1 | inconclusive: 21.8% |  |

| Compound | activity change, negative = inhibition | Potency |
| --- | --- | --- |
| COc1ccc(Oc2ncc3nc(-c4cccs4)c(=O)n(Cc4cccs4)c3n2)cc1 |  | active: 3.16 µM |
| N#Cc1nc(COc2cccc(Cl)c2)oc1N1CCCC1 | inactive |  |
| CCOc1ccc(N(Cc2cc3cc(OC)ccc3[nH]c2=O)C(=O)C2CCCO2)cc1 (stereo not drawn) | inactive |  |
| CN(C)CCCN1C(=O)C(=O)/C(=C(/O)c2ccc3c(c2)OCCO3)C1c1ccccn1 (stereo not drawn) | inconclusive: 2.35% |  |
| COc1ccc(-c2cn3cccnc3n2)cc1NC(=O)CC(C)C |  | inconclusive: 5.01 µM [rising, single point] |
| COc1ccccc1Cn1c(=O)c2ccccc2n2c(SCc3csc(C)n3)nnc12 | inconclusive: 24.9% |  |
| CCNc1nc(NC(C)(C)C)nc(N(CC)n2cnnc2)n1 |  | inconclusive: 10 µM [rising, single point] |
| CCOc1ccccc1C(=O)Nc1cc(Cl)ccc1O | inconclusive: 1.53% |  |
| COc1ccc(-c2nnc3sc(-c4ccc(Br)o4)nn23)cc1OC |  | inconclusive: 1.58 µM [rising, full curve, poor fit] |
| COc1ccccc1-c1cc(C(F)(F)F)nc(N2CCN(c3ccc(F)cc3)CC2)n1 | inactive |  |
| OC[C@H]1NC[C@H](O)[C@@H](O)[C@H]1O | inactive |  |
| CCN(CC)S(=O)(=O)c1ccc(Nc2nc3ccccc3n3nnnc23)cc1 |  | active: 5.01 µM |
| CCCCSc1nc2c(c(=O)[nH]c(=O)n2C)n1CCc1ccccc1 |  | active: 10 µM |
| COc1ccc(-c2nnc(SCC(=O)c3cccs3)o2)c(OC)c1 |  | inconclusive: 12.6 µM [rising, single point] |
| CCCCCC1=C2CNC(Cc3ccccc3)(C(=O)OC)C=C2C(C)C1=O (stereo not drawn) | inconclusive: -8.64% |  |
| CCC(C)n1[nH]c(=O)cc1N (stereo not drawn) | inconclusive: -9% |  |
| N#CC1=C(N)Oc2n[nH]c(-c3cccs3)c2C1c1cccs1 (stereo not drawn) | inactive |  |
| COc1ccc2[nH]c(=O)c(CN(Cc3ccco3)Cc3nnnn3Cc3ccccc3)cc2c1 | inactive |  |
| O=C(NCCCNCc1ccccc1)c1ccc(/C=N/O)nc1 | inconclusive: 14.5% [at 7.6 µM] |  |
